# Measured values reported in paper PMC4336329 (PLoS ONE, 2015).
# Out of some 310,000 compounds screened, about 14,000 (4.5%) showed an effect of 50% or more. Effects have a minus sign here. Some of the results follow.
# Target: human ether-à-go-go-related gene (hERG) potassium channel (human, UniProt Q12809)
# Experiment: primary screen, population patch clamp on CHO cells stably expressing hERG
# 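Note: peak tail current of the secondary pulse compared with the same well before compound.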
# Chain of human ether-à-go-go-related gene (hERG) potassium channel (Q12809 whole entry, looked up): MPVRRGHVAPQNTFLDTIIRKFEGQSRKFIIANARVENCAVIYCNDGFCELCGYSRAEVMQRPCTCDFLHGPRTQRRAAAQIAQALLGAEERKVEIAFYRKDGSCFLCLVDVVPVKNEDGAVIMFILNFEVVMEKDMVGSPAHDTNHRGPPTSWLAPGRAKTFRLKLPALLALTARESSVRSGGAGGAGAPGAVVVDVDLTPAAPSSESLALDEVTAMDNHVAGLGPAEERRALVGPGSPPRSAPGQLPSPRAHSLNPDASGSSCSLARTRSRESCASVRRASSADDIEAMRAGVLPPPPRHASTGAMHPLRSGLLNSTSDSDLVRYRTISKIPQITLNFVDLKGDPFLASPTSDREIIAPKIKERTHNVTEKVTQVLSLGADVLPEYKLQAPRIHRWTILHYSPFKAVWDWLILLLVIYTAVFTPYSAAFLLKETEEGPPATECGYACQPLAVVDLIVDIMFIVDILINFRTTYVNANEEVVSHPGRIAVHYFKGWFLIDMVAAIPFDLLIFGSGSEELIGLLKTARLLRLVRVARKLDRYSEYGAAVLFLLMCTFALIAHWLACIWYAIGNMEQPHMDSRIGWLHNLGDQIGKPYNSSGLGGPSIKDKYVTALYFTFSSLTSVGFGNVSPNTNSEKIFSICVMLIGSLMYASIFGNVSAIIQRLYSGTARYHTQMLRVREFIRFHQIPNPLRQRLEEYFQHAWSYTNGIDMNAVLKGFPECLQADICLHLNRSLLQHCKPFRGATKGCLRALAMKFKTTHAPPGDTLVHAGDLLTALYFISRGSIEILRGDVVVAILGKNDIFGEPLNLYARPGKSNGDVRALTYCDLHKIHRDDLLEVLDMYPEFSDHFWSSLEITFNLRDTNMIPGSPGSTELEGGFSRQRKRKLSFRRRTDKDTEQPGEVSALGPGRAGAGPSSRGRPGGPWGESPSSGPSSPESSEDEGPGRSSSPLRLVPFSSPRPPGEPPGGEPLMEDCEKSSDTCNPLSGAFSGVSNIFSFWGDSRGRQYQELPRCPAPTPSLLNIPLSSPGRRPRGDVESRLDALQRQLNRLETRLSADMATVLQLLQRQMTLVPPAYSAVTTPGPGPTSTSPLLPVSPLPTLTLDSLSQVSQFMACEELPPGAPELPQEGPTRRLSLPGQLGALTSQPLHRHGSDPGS
row,Structure (SMILES),"hERG current change (%, negative = inhibition) at 10uM [%]"
1,Cc1cc(N2CCOCC2)n2nc(C)c(-c3ccccc3Cl)c2n1,-32.7
2,CCCCNC(=O)CNC(=O)c1nn(-c2ccc(OC)c(Cl)c2)c(=O)c2ccccc12,9.5
3,C=CCn1c(O)c(C(CC)=NCCc2c[nH]c3ccccc23)c(=O)[nH]c1=O,-34.2
4,Cc1ccc(C(=O)O)cc1NC(=O)c1ccc(Cn2nc(C)c(Cl)c2C)o1,38.7
5,O=C(N/N=C/c1ccc([N+](=O)[O-])o1)c1ccc2c(c1)OCO2,4.2
6,CC(NC(=O)Nc1ccc(F)cc1F)c1ccc2c(c1)OCO2 (stereo not shown),-0.996
7,CC1CCN(c2nc(CN3CCCCC3)nc3scc(-c4ccccc4)c23)CC1,-75.5
8,O=C(CSc1ccc(Cl)cc1)N/N=C/c1ccc([N+](=O)[O-])o1,-12.5
9,CCOc1ccc(S(=O)(=O)NCCC(=O)OCC(=O)c2ccc[nH]2)cc1,14.6
10,O=C(NCc1ccco1)c1cnccn1,1.55
11,CCOc1ccc(N(CC(=O)NC2CCCC2)C(=O)CSc2nnc(COc3ccccc3)o2)cc1,-24.4
12,CCS(=O)(=O)N1CCN(S(=O)(=O)c2ccccc2)CC1.O=C(O)C(=O)O,-5.25
13,O=C1CCC(C(=O)Nc2ccccc2)N1 (stereo not shown),22.1
14,O=C1OC(CO)CN1Cc1ccccc1 (stereo not shown),12.3
15,CCOc1ccc(C(=O)CCC(=O)Nc2ncccc2O)cc1,5.51
16,O=C(Cc1ccc(Br)cc1)NCCN1CCOCC1,4.99
17,C[C@@H]1CCC(=O)N(C[C@@H](C)CC#N)CC1,32.9
18,Cc1ccc(OCC(=O)NNC(=O)Cn2nnc(-c3ccccc3)n2)cc1,16.8
19,Cc1[nH]n(-c2c(Cl)cc(Cl)cc2Cl)c(=O)c1C=Nc1ccc(S(=O)(=O)N2CCOCC2)cc1,-15.2
20,CCN1CCN(C(=O)COc2ccc(S(=O)(=O)N3CCOCC3)cc2C)CC1,17.9
21,COc1cc(C2NC(=O)N(C)C(C)=C2C(=O)OCc2ccccc2)cc(Br)c1O (stereo not shown),-8.96
22,CCc1ccc2c(c1)c1nc(C)sc1n2CC,-5.89
23,COC(=O)c1ccc(/C=N/OCC(=O)NCc2ccc(F)cc2)cc1,17.9
24,Cc1nn2c(NCc3ccccn3)cc(C(C)(C)C)nc2c1-c1ccccc1,0.0853
25,C=CCc1cccc(/C=N/c2nc3ccccc3n2CC)c1O,7.53
